Common to all, as to assay: pull-down; GST or GST-fused bait immobilised on glutathione sepharose 4B; 35S-methionine-labelled IVTT prey; 90 min at 4°C in WB1 (50 mM HEPES pH 7.5, 150 mM NaCl, 2 mM MgCl2, 1 mM EGTA, 1 mM DTT, 0.1% Triton X-100) with protease inhibitors and 0.5 mg/ml BSA; SDS-PAGE and autoradiography; only the target purified
One assay addresses T1, GST-Hs-EVH1^L69A (human) (UniProt Q6IN85).
T1 sequence: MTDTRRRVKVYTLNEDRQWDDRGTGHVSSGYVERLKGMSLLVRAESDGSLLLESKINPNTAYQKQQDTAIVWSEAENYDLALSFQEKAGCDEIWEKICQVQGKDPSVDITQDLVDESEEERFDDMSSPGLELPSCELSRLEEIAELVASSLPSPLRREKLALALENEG

The target of assay [1] is T2, GST-Hs-EVH1 (human SMEK1^EVH1, aa 1-168) (human) (UniProt Q6IN85).
T2 sequence: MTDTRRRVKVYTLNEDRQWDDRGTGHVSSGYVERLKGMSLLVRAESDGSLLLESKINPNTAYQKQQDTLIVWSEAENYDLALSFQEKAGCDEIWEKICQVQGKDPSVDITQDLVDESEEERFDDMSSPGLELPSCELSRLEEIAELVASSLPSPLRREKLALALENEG

Assay [2] deals with T3, GST-EVH1 (Falafel Flfl^1-168aa, containing the EVH1 domain) (Drosophila melanogaster) (UniProt Q9VFS5).
T3 sequence: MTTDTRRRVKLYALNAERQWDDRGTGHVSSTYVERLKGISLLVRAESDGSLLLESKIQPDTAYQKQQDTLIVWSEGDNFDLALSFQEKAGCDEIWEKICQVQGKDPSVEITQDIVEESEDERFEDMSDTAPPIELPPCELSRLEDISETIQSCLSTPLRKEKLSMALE

Assay [3] has as its target T4, GST-Dm-EVH1^L70A (Drosophila melanogaster) (UniProt Q9VFS5).
T4 sequence: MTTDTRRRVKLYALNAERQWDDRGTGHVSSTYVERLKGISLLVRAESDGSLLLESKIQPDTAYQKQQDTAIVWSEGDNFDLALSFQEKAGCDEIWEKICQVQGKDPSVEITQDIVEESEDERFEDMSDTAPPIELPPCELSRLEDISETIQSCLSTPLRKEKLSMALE

1 molecule from PMC7776573 can be followed below.

No constants are given. Whether binding was seen depends on the method and setting. In cells and extracts the contact can be indirect. Some entries that bind do so weakly or less than the wild type. Tags and fused reporters may be left off the sequences shown.

B1: CENP-C (protein, UniProt Q9VHP9 1-1411)
chain: MSKPQNNDTLELDDILSQPVKDKERFAAFMMRKLAENKPAQNDNLFGNFKLDFDLDFEVPLIKKSQAKPKSKLPEVQPLGELVSKNSAATEKVNEPPVDQAPNENVPPRRSPTLSPNNRRSMRRSGNVPGSDKLRRHAIRRRSRSCGRQLLPEFEETVNLTRSISSPVNFLPEISSTPCTEKQKEEVAKNTTRVETDKPAEKPMELSQEPEPENPLQTKVTSPARNPILAAEIEQICKERQSSFHKNVLQLDYSGRAPYSRPPTPSSPSVAGLRRTYTMEKGPAPGQLLLSPSHRYDTPSKMPVVKAKRFNQELMVPDTPERQSHDPAWQSEPQPEFVVPETQPQDLGELVQTLSRSAISPIVVINTSNSNRSVRRDAVAMKSVPTSPVTALSSPPIAPSPRRSAAASPQKSIAQLPRVEENMDAIMTDDESDEHPSTVPLNLAPSGGNTTRQRRLRSSNRARATIESQESSMRLLNLHKSVNAKKSKPRKTAIPLNKAPSAPINGEQFARELTRMSNYEILDLRKRNSLNEIYPLNGHRNHRSEKLILEEEIQRELLRRNLMDEAEGLPKQQSSDDSNEDYIPVPPKTQSLRTKSNDRSQGRGRPRSTRRDLPMTTELVNYLGLSQTLETRRKSSKDGKRCLYTKGSSDHEDNDSLSPVKLPRLSKSIQIVPPPPVSLRYSQSLQNLPCSGKFDFDNVVMAAPPDFHDSVNSDAIEIAPPPPEYVVNTRGRSTSGRKSNKNDLVLPPPGYEGGQEEEHDERPSQPRCTAKELQQSTQNGRRAMENELVPPPIEYVEEENRNNEQSRRSTKNGNLVDRNTHNAVEYCEPPEPPEYDDSDHGQASILRRSGKKLQHSKQSVQKSNKEQIIAPSYENNEDYDSDEEPIYNEEYGKEESQNKNVTRRKSDKDEMASHTLECIEGPDPNWNSSCNKQNRNHQNASKSKENDKLANRSSKSQKLSNPRQNAVGTEKSVALSNRGEECTEKSSDVMESLRVNTPTPPIDQNSDDVPSRNPSPSRTLLSDDVPSTSRAALEFLQRSQNMSKSRPPDESSADVVFKKPLAPAPRAKSKKGKSEVDKLKLAKMPVEAEELNTTGIRRSKRGQVPLQMSWCHTMDPSKFNFMSGFIEPRSKNSKTKKGNLSKAKKASATKPKPTVEKNLPDNRGPLCSSTPRISEKLPGAIPHSESLGLSTLTWEETEVQAEAEKVPKKRGRPKKAVGGVQTDTEAEPEPEPEPMISSVAPLTSDQEEPDVPDEQAPYTEAALGPVVFSTPLRDEQEEASTKLMQWLRGVGDAPPSASMSDENASVSSANELIFCQVDGIDYAFYNTKEKAMLGYMRFKPYQKRSMKQAKVHPLKLLVQFGEFNVETLAVGEEKEVHSVLRVGDMIEIDRGTRYSIQNAIDKVSVLMCIRS
modifications: 35S-methionine label
With B1, the binding entry with GST-Hs-EVH1^L69A (human) was “no binding”; in assay [1] it was “binds”; in assay [2] it was “binds”; in assay [3], “no binding”.
